The source of these data is PubChem BioAssay AID1240 (Sanford-Burnham Center for Chemical Genomics, 2008).

The campaign covered roughly 50,000 compounds. About 800 (1.6%) showed an effect of 50% or more. The list shows a part of the results.

This test has as its target Bcl-2-like protein 10 (Homo sapiens) (UniProt Q9HD36). The experiment in a line: TR3 peptide-Bcl-B binding displacers, biochemical primary FP assay, phenotype converters (AID 1240).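 Also: 0% = Bcl-B with tracer peptide and DMSO and 100% = tracer peptide lacking Bcl-B.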 Particulars: GST-Bcl-B / FITC-TR3 peptide fluorescence polarization; stronger effect = higher value; compound at 3.75 mg/L.
Sequence of UniProt Q9HD36 (Q9HD36 whole entry, looked up): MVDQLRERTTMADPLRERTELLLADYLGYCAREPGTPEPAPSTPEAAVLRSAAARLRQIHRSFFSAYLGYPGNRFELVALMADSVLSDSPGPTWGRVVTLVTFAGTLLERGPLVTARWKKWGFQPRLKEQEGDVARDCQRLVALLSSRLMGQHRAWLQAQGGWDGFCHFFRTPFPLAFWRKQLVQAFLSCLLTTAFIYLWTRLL
Turning to `O=C(CN(c1cccc(Cl)c1)S(=O)(=O)c1ccccc1)Nc1cccc2cccnc12`, the displacement was -6.8%.

On to `CC(=O)NC1=NN(C(C)=O)C(c2ccc(Br)cc2)S1` (stereo unspecified), for which the displacement was -6.3%. Then `CCc1cccc(C)c1NC(=O)c1ccc(OC)c([N+](=O)[O-])c1`, with -10.9%. For the compound `CCN(CC)C(=O)CN(c1cccc(Br)c1)S(=O)(=O)c1ccccc1`, the displacement came out at 7.1%. Then `O=C(Nc1c(-c2ccccc2)nc2ccc(Cl)cn12)c1ccc(Br)cc1`, with 9.6%.

Consider `COC(=O)/C(O)=C/C(=O)c1cccs1`, for which the displacement came out at 16.4%. Then `CC(=O)c1c(-c2ccccc2)c2cc([N+](=O)[O-])ccc2n1C`, with -5.3%. With `O=C(COc1ccc(Br)cc1)NNC(=O)Nc1ccccc1`, the displacement stood at 4.2%. Then `O=C(Cn1nnc2ccccc21)NNC(=S)Nc1ccccc1`, with -26.5%; and `O=C(c1ccccc1)N1CCCC2CCCC21` (stereo unspecified), with 9.3%.

As to `COC(=O)C1=CN(Cc2cccs2)C=C(C(=O)OC)C1c1ccc(C)s1`, the displacement is 34.6%.

`CC(C)OC(=O)c1c(NC(=O)c2cccs2)sc2c1CCCC2`: the displacement is 5.8%. The figure for `O=C(Nc1cccc(Cl)c1)Nc1nnc(/C=C/c2ccccc2Cl)s1` is 10%; for `CC(C)CC(=O)NS(=O)(=O)c1ccc(NC(=O)c2ccccc2Cl)cc1` it is 17.9%; for `CCC(Oc1ccccc1)C(=O)NC(C)c1ccccc1` (stereo unspecified) it is -18.9%. In the case of `Cc1ccccc1NC(=O)CN(c1cccc(Br)c1)S(=O)(=O)c1ccccc1`, the displacement is -4%. Turning to `Cc1cccc(C(=O)Nc2ccc(I)cc2Cl)c1`, the displacement is -3.9%. Turning to `C=CCNC1=C(Cl)C(=O)N(c2ccc(C)cc2C)C1=O`, the displacement stood at 13.7%.

Consider `COc1ccc(C(=O)Nc2sc3c(c2C(=O)OC(C)C)CCCC3)cc1OC`, for which the displacement stood at 12%. For `CCOc1ccc(N(CC(=O)NCCc2ccccc2)S(=O)(=O)c2ccc(Br)cc2)cc1`, the displacement was 10.5%. The figure for `COc1ccc(C(=O)N/N=C/c2ccc(SC)cc2)cc1` is -4.2%; for `O=C1C(=O)N(Cc2cccnc2)C(c2ccc(Cl)cc2Cl)/C1=C(\O)c1ccccc1` (stereo unspecified) it is 1.7%; for `Cc1ccccc1/C=C1\C(=O)NC(=O)N(c2ccc(Br)cc2)C1=O` it is 4.6%. Then `CS(=O)(=O)N(CC(=O)N1CCOCC1)c1ccc(Cl)cc1`, with 13.1%; and `CS(=O)(=O)N(CC(=O)O)c1ccccc1`, with 0.7%; and `CN1C(=O)/C(=C2\SC(=S)N(C(Cc3ccccc3)C(=O)O)C2=O)c2ccccc21` (stereo unspecified), with 0.9%.

On to `Cc1[nH]c2ccc(Br)cc2c1CC(=O)N/N=C/c1ccc(Cl)c(Cl)c1`, for which the displacement came out at 5.1%. Turning to `O=C(CN1C(=O)/C(=C\c2ccccc2F)SC1=S)Nc1cccc(C(=O)O)c1`, the displacement amounted to 26.4%. Then `COc1ccc(N=CC2=C(O)CC(C)(C)CC2=O)cc1OC`, with -7.2%; and `COc1cc(C=C2C(=O)NC(=O)NC2=O)cc(Cl)c1OCCOc1ccccc1C`, with 9%.

With `O=C(/C=C/c1ccc(-c2cc(Cl)ccc2Cl)o1)c1ccc([N+](=O)[O-])cc1`, the displacement is -8.1%. Then `O=C(Nc1ccc2oc(-c3ccc(Cl)cc3Cl)nc2c1)c1ccc(Br)o1`, with -0.5%; and `COc1ccccc1NC(=O)CN1C(=O)/C(=C\c2cc(OC)c(OC)c(OC)c2)SC1=S`, with 36.7%.

Consider `CC1(C)N=C(N)NC(Nc2ccccc2)=N1`, for which the displacement stood at 0.2%. For `COc1ccc(CC(=O)NCc2ccccc2Cl)cc1OC`, the displacement was -1.3%. Regarding `CCOC(=O)c1c(NC(=O)CC2SC(N)=NC2=O)sc(C)c1C` (stereo unspecified), the displacement was -19.8%. On to `CCOCCOC(=O)C1=C(C)NC(=O)NC1c1ccccc1OCc1ccccc1` (stereo unspecified), for which the displacement is -0.7%.

In the case of `COc1ccc(-c2cc(C(=O)N/N=C(\C)c3ccc(N)cc3)[nH]n2)cc1`, the displacement was -1%. On to `O=C1OC(c2ccc(F)cc2)=N/C1=C\c1cccc(Br)c1`, for which the displacement came out at 74.2%.

On to `O=C(NCCc1ccccc1Cl)C1CC(=O)N(c2ccccc2)C1` (stereo unspecified), for which the displacement worked out at 13.8%.

As for `Cc1cc(C)n(-c2cc(Nc3cccc(F)c3)ncn2)n1`, the displacement was -6.3%.

`CCN(CC)CCCCOc1cccc(OC)c1`: the displacement is -10.2%.

For the compound `C/C(=N/NC(=O)c1cncc(Br)c1)c1ccc2ccccc2c1`, the displacement amounted to 2.4%.

For `CC(=O)c1cc(F)c(N2CCN(C(=O)c3ccccc3Br)CC2)cc1C`, the displacement was -5.4%. Then `Cc1cc(C)cc(N=Cc2ccc(OC3CSC3)cc2)c1`, with 4.5%; and `COC(=O)c1ccc(NC(=O)C(=O)NCCCN(C)C)cc1`, with -2.4%. Then `CC(=O)NC1=NN(C(C)=O)C(C)(c2cccc([N+](=O)[O-])c2)S1` (stereo unspecified), with -5.9%. Turning to `COc1ccc(Cl)cc1C(=O)NN=C1CCN(C)CC1`, the displacement was found to be 7.1%. As to `O=C(Nc1ccc(N2CCCCC2)c(Cl)c1)c1ccc(-c2ccc(F)cc2)o1`, the displacement is -0.6%. The figure for `C=CCNc1nc(-c2ccc(F)cc2F)cs1` is -3.1%. With `CCN(CC)c1ccc(C(=O)Nc2ccc(F)c(Cl)c2)cc1`, the displacement came out at 0.1%. On to `N#Cc1cc(C#N)c(SCC(=O)c2ccccc2)nc1N`, for which the displacement was 37.4%.

Consider `COc1ccc(-n2c(C)ccc2C)c(N)c1`, for which the displacement is 44.7%. In the case of `COc1ccc(C(=O)NCC2CCCO2)c(OC)c1` (stereo unspecified), the displacement is 18.2%. As to `Cc1ccc(NC(=O)C2CC2(c2ccccc2)c2ccccc2)c(C)c1` (stereo unspecified), the displacement is 2.3%. Then `CC(C)c1ccc(CNC(=O)CSCC(=O)Nc2ccc3ccccc3c2)cc1`, with 14.2%. Then `CCCCNC(=O)C(CCC(=O)OCc1ccccc1)NC(=O)Cc1ccccc1` (stereo unspecified), with 14.4%; and `Cc1cc2c(cc1C)NC(c1ccc(Cl)c(F)c1)C1=C(CC(C)(C)CC1=O)N2` (stereo unspecified), with -1.9%. As for `CCN(CC)c1ccc(C=Nc2cccc([N+](=O)[O-])c2C)c(O)c1`, the displacement was 12.9%.

`Cc1ccc(-c2nc3cc(Cl)ccc3o2)cc1NC(=O)COc1ccccc1[N+](=O)[O-]`: the displacement was determined as 40.2%. The figure for `O=C(Nc1ccccc1C(=O)c1ccccc1)c1ccc([N+](=O)[O-])cc1` is -11%. Then `C1CN(CC23CC4CCC(CC(C4)C2)C3)CCO1`, with -3.6%; and `O=C(O)c1ccc(NC(=O)c2ccc(Cl)c(S(=O)(=O)N3CCOCC3)c2)cc1`, with -11.9%.

Take `COCCNC(=O)c1ccc(CN(c2ccccc2)S(C)(=O)=O)cc1`: the displacement came out at 15.7%. Then `CCN(CC)c1ccc(NC(=O)c2ccc(C(C)C)cc2)cc1`, with 5.1%; and `O=S(=O)(NC1C2CC3CC(C2)CC1C3)c1ccc2ccccc2c1` (stereo unspecified), with 0.3%; and `CS(=O)(=O)N(CC(=O)N1CCOCC1)c1cccc(C(F)(F)F)c1`, with 2.8%. Then `COc1ccc(NC(=O)c2ccccc2NC(=O)c2ccccc2)cc1`, with -6%; and `Cc1oc2cc(OCc3ccc([N+](=O)[O-])cc3)ccc2c(=O)c1-c1nc2ccccc2n1C`, with 5.4%; and `COc1ccc(O)c(C(=O)CC(=O)c2ccc(C(C)(C)C)cc2)c1`, with -22.9%. Regarding `O=C(Cc1ccccc1)Nc1ccncc1`, the displacement turned out to be 5.2%.

Regarding `COc1ccc(NC(=O)c2ccccc2C(F)(F)F)cc1`, the displacement was -7.7%. As to `O=C(N/N=C/c1ccccc1O)c1cnccn1`, the displacement is -20.4%.

In the case of `Nc1ccc(Br)cc1/C(=N/O)c1ccccc1`, the displacement was -0.7%. The figure for `COc1cc(OC)c(OC)cc1/C=N/NC(=O)CCC1C(=O)NN=C1C` (stereo unspecified) is 0.8%. The figure for `Clc1cccc(CNCc2ccc3c(c2)OCO3)c1` is -3.8%; for `COc1ccccc1NC(=O)c1cc2ccccc2o1` it is 0.2%; for `COc1cc(OC)cc(C(=O)Nc2ccc(Br)c(C)c2)c1` it is 2.6%. Then `O=C(NNc1nc(-c2ccccc2)cs1)c1cccc(Br)c1`, with 11%; and `CCOC(=O)c1ccc(NC(=O)CC2SC(=O)NC2=O)cc1` (stereo unspecified), with 10.5%; and `COCCNC(=O)/C(=C\c1ccc(OC)cc1)NC(=O)c1ccc(C)cc1`, with 9%. Take `COc1c(Cl)ccc(Cl)c1C(=O)Nc1c(C)cccc1C(C)C`: the displacement is 5.2%. The figure for `O=C1N/C(=N/N=C/c2ccccc2O)SC1Cc1ccccc1` (stereo unspecified) is 1.4%. As to `COc1ccc(C(=O)N2CCN(C(c3ccccc3)c3ccccc3)CC2)cc1OC`, the displacement was determined as 5.4%. The figure for `O=C(/C=C(\O)c1ccccc1)c1ccc([N+](=O)[O-])cc1` is -0.6%. Turning to `Cc1ccccc1N1C(=O)NC(=O)/C(=C/c2cn(CC(=O)Nc3ccccc3)c3ccccc23)C1=O`, the displacement came to 53.6%. Then `Cc1ccc(C(C)C)c(OCC(=O)Nc2ccc(OC(F)(F)F)cc2)c1`, with 3.7%; and `O=C(Nc1cccnc1)c1cnn2c1NC(c1cccs1)CC2C(F)(F)F` (stereo unspecified), with 6.8%. On to `Cc1ccc(N(CC(=O)NC(C)c2ccccc2)S(C)(=O)=O)cc1Cl` (stereo unspecified), for which the displacement was -1.3%. Then `Cc1cc(C)cc(N2C(=O)/C(=C/c3ccc(Oc4ccc([N+](=O)[O-])cn4)cc3)C(=O)NC2=S)c1`, with 12.1%; and `C/C(CC(=O)NCc1ccco1)=N\NC(=O)Cc1cccs1`, with -9.5%. The figure for `COc1cc(/C=N/N2C(=O)CSC2=S)ccc1OCCOc1ccc(C)c(C)c1` is 45%; for `O=C(Nc1ccc(S(=O)(=O)N2CCc3ccccc32)cc1)c1ccc(-c2ccccc2)cc1` it is 89.5%. The figure for `CSCCOC(=O)C1=C(C)NC(=O)NC1c1cccc2ccccc12` (stereo unspecified) is 5.3%. As to `CC1(C)C=C(/C=C/c2ccccc2)NC(=O)N1`, the displacement is 7.5%.

In the case of `CC(C)(C)NC(=O)c1ccc(N2C(=O)c3ccc([N+](=O)[O-])cc3C2=O)cc1`, the displacement is -0.1%. On to `COc1ccc(/C=C/C(=O)Nc2ccc(Oc3ccccc3)cc2)cc1OC`, for which the displacement is -8%. The figure for `COc1ccc(NC(=O)C2CC(=O)N(c3ccc(F)cc3)C2)c(OC)c1` (stereo unspecified) is 11.7%.

For the compound `COc1cccc(C(=O)NCCc2nc3ccccc3[nH]2)c1`, the displacement was -7.2%. In the case of `CC(C)c1ccc(-c2csc(NC(=O)C3C4CCC(C4)C3C(=O)O)n2)cc1` (stereo unspecified), the displacement was 7.6%.

On to `COc1cccc(/C=N\n2c(C)nnc2C)c1O`, for which the displacement stood at 10.1%. Then `CN(C)c1ccc(C(=S)N2CCN(c3ccccc3)CC2)cc1`, with 15.6%; and `CS(=O)(=O)N1CCN(Cc2c[nH]c3ccccc23)CC1`, with 20.1%; and `COc1ccc(CCNc2cc(N3CCN(S(C)(=O)=O)CC3)ccc2[N+](=O)[O-])cc1OC`, with -5.5%. Then `O=C1CSC(=O)N1CNc1cccc2ccccc12`, with 12.9%; and `CC(Oc1ccc(Cl)cc1Cl)C(=O)N1CCN(C/C=C/c2ccccc2)CC1` (stereo unspecified), with -1.6%. On to `CC(=O)O/N=C1\CCCc2c1[nH]c1ccccc21`, for which the displacement is -1.4%. Then `COC(=O)c1ccc(C2C(C(=O)OC(C)C)=C(C)N=C3SCCC(=O)N32)cc1` (stereo unspecified), with 11.3%; and `c1ccc2cc(OCCOCCOc3ncnc4ccccc34)ccc2c1`, with 16.4%; and `Cc1ccc2oc(-c3cccc(N)c3C)nc2c1`, with 12.1%. Then `O=C(/C=C/c1ccc2c(c1)OCO2)N1CCCC1`, with -2.3%.
